Out of some 150,000 compounds screened, about 540 (0.36%) showed an effect of 50% or more. The list shows a part of the results.
What follows are compounds tested on Plasmodium falciparum (assay: Primary screen in NF54 nanoGlo assay, in single point, at 2uM, 72h; a lower Z score goes with more inhibition). Settings: timepoint 72 hour.
Format: functional, Erythrocyte

In order of falling “% Inhibition” value:
1. CC(C)c1cc(C(=O)N2CC3CCCCC3C2)on1 (configuration not stated)  30%
2. CN1CCN(Cc2nnnn2C)c2ccc(Cl)cc21  16%
3. Fc1ccc(-c2cn[nH]c2[C@H]2CCCNC2)cc1  12%
4. O=C1CNC(=O)N1CCN1CC2CCCCC21c1ccccc1 (configuration not stated)  11%
5. Cc1ccccc1CN1C(=O)NC(C2CC2)(C2CC2)C1=O  9%
6. CCOC(=O)[C@H]1CCCN(C(=O)N(CC)CC)C1  9%
7. C=CCN(Cc1ccc(F)cc1)Cc1cnc(NCC(=O)O)nc1  7%
8. COc1cccc(CN(CC(C)C)C(=O)CN2C(=O)CCNC2=O)c1  6%
9. O=C(Nc1cccc(C(F)(F)F)c1)c1cc(O)n(-c2ccc(Cl)cc2)c(=O)n1  6%
10. CC(C)(C)NC(=O)NCc1cccnc1-c1cccs1  5%
11. COc1ccc(N2C(=O)c3ccccc3NC23CCCCC3)cc1  4%
12. C[C@@H]1Oc2ccccc2CN(CCc2cccs2)C1=O  2%
13. O=C(COc1ccc(-c2ncccn2)cc1CN1CCCCCC1)NC[C@H]1CCCO1  2%
14. CCc1cc2c(N3CCCO3)ncnc2s1  1%
15. Nc1nccnc1C(=O)N[C@@H](c1ccccc1)c1ccc2c(c1)CCCO2  1%
16. CC(=O)N1CC2(CCN(C(=O)c3cnc(C(C)(C)C)s3)CC2)[C@H]2COC[C@H]21  1%
17. COc1cc(OC)cc([C@H](C(=O)O)N2CCc3ccccc3C(C)(C)C2)c1  0%
18. CCC1(CO)CCN(C(=O)NCc2cnc(CC(C)C)s2)CC1  0%
19. Fc1ccc(-c2noc([C@H]3CCCN(c4nc5ccccc5o4)C3)n2)cc1  0%
20. O=C(Nc1nnc2ccccn12)c1cccc(F)c1  0%
21. Cc1cc(C(=O)N2CCOC[C@H](Oc3ccc(S(C)(=O)=O)cc3)C2)c(C(F)(F)F)o1  -1%
22. Cc1ncccc1NC(=O)c1ccc([C@H]2CCCOC2)cc1  -1%
23. Cc1cc(C(=O)Nc2c(C(F)(F)F)nn(C)c2Cl)c(C)n1C  -2%
24. COc1ccc(-c2nnc(-c3ccccc3)n2-c2cccnc2)cc1  -2%
25. Cc1n[nH]c(-c2ccc(S(=O)(=O)N3CCN(C)CC3)o2)c1C  -3%
26. COc1ccc(NC(=O)N2CC[C@H]3COC(=O)N3c3ccccc3C2)cc1  -3%
27. c1cnn(C2CN(C[C@@H]3CCCN4CCCC[C@H]34)C2)c1  -4%
28. COCc1nc(CCCN2CCCC2=O)n(Cc2ccc(Cl)cc2)n1  -5%
29. O=C(O)c1c(S(=O)(=O)NCc2ccsc2)sc2c1CCNC2  -5%
30. COC[C@H]1CCCN1C(=O)CCc1scnc1C  -5%
31. COCc1noc(C2CC(O)(c3cccc(Cl)c3)C2)n1 (configuration not stated)  -6%
32. CN(C(=O)c1ccc2nccnc2c1)[C@H]1CCCN(CCCc2ccccc2)C1  -6%
33. CCN(CC(C)C)C(=O)c1cc(C)on1  -6%
34. CCN1CCN(Cc2ccc3c(c2)OCCO3)[C@H]2CS(=O)(=O)C[C@H]21  -6%
35. Cc1nnc(OC2Cc3ccccc3C2)s1  -7%
36. CCOCC(=O)Nc1cnn(-c2cccc(C)c2)c1CC  -7%
37. CNC(=O)[C@@H](C)CN(C)C(=O)Nc1cccc(N(C)C(C)C)c1  -7%
38. CC(C)(Oc1ccc2c(c1)CCC2)C(=O)Nc1nccs1  -7%
39. CCCc1c(C(=O)OCC)c(C(=O)OCC)c2c(-c3ccccc3)nc(N3CCOCC3)nn12  -7%
40. CO[C@@H]1CC[C@@]2(OC)CCN(C(=O)c3cnoc3-c3ccccc3)[C@H]2C1  -7%
41. CCCN1CCC[C@H]1CNC(=O)C1CCCCN1S(=O)(=O)CCC (some centres not stated)  -8%
42. Cc1cc(C(=O)N(C[C@H]2CCCO2)c2nc3c(C)ccc(Cl)c3s2)on1  -8%
43. CCC(=O)Nc1ccnn1C1CCCCC1  -8%
44. CCN(CCOc1cccc(C)c1)C(=O)c1csc(CN(C)C)n1  -9%
45. C[C@]1(c2ccccc2)C[C@H]1C(=O)NCCc1nc2c(s1)COCC2  -9%
46. COc1nc(C)nc2c1ccc1ccccc12  -9%
47. COCc1cc(Cn2cc(-c3cc(C(C)(C)C)[nH]n3)nn2)n[nH]1  -10%
48. Cn1ncc(Oc2ccc(F)cc2)c(Nc2ccc(C(=O)NCCc3ccccn3)cc2)c1=O  -10%
49. CC(C)n1cc(C(=O)N2CCC(c3nc4ccccc4o3)CC2)cn1  -11%
50. CC(C)Oc1ccccc1-c1c[nH]c([C@H]2CC(=O)N(C3CCCC3)C2)n1  -11%
51. CC1CC(C(=O)N2CCC[C@@H](O)C2)CC(C)(C)C1 (some centres not stated)  -11%
52. CC1CCN(C(=O)CN(C)C2CCCC2)CC1  -11%
53. Cc1c[nH]c(CN2CCC(Oc3ccc(Cl)cc3C(=O)NC(C)(C)C)CC2)n1  -13%
54. CCN1CC[C@H](NC(=O)C(C)(C)CO)C(F)(F)C1  -14%
55. Cc1ccc([C@@H](C)Cc2cn(Cc3nnc4ccccn34)nn2)o1  -15%
56. Cc1ccc(S(=O)(=O)NCc2nc(-c3cnn(C)c3)no2)s1  -26%

In order of falling Z score:
1. Cc1ccc(S(=O)(=O)NCc2nc(-c3cnn(C)c3)no2)s1  3.36
2. Cc1ccc([C@@H](C)Cc2cn(Cc3nnc4ccccn34)nn2)o1  1.91
3. CCN1CC[C@H](NC(=O)C(C)(C)CO)C(F)(F)C1  1.85
4. Cc1c[nH]c(CN2CCC(Oc3ccc(Cl)cc3C(=O)NC(C)(C)C)CC2)n1  1.71
5. CCN(CCOc1cccc(C)c1)C(=O)c1csc(CN(C)C)n1  1.65
6. CC(C)Oc1ccccc1-c1c[nH]c([C@H]2CC(=O)N(C3CCCC3)C2)n1  1.61
7. Cc1cc(C(=O)N(C[C@H]2CCCO2)c2nc3c(C)ccc(Cl)c3s2)on1  1.5
8. CC1CC(C(=O)N2CCC[C@@H](O)C2)CC(C)(C)C1 (some centres not stated)  1.43
9. COCc1cc(Cn2cc(-c3cc(C(C)(C)C)[nH]n3)nn2)n[nH]1  1.31
10. CC(C)n1cc(C(=O)N2CCC(c3nc4ccccc4o3)CC2)cn1  1.3
11. CC1CCN(C(=O)CN(C)C2CCCC2)CC1  1.28
12. CCN1CCN(Cc2ccc3c(c2)OCCO3)[C@H]2CS(=O)(=O)C[C@H]21  1.21
13. C[C@]1(c2ccccc2)C[C@H]1C(=O)NCCc1nc2c(s1)COCC2  1.15
14. Cn1ncc(Oc2ccc(F)cc2)c(Nc2ccc(C(=O)NCCc3ccccn3)cc2)c1=O  1.14
15. CO[C@@H]1CC[C@@]2(OC)CCN(C(=O)c3cnoc3-c3ccccc3)[C@H]2C1  1.13
16. CCC(=O)Nc1ccnn1C1CCCCC1  1.11
17. Cc1nnc(OC2Cc3ccccc3C2)s1  1.07
18. CCCN1CCC[C@H]1CNC(=O)C1CCCCN1S(=O)(=O)CCC (some centres not stated)  1.05
19. COc1nc(C)nc2c1ccc1ccccc12  1.02
20. CCCc1c(C(=O)OCC)c(C(=O)OCC)c2c(-c3ccccc3)nc(N3CCOCC3)nn12  0.96
21. COCc1noc(C2CC(O)(c3cccc(Cl)c3)C2)n1 (configuration not stated)  0.93
22. CN(C(=O)c1ccc2nccnc2c1)[C@H]1CCCN(CCCc2ccccc2)C1  0.89
23. O=C(O)c1c(S(=O)(=O)NCc2ccsc2)sc2c1CCNC2  0.89
24. CCOCC(=O)Nc1cnn(-c2cccc(C)c2)c1CC  0.87
25. COC[C@H]1CCCN1C(=O)CCc1scnc1C  0.87
26. CNC(=O)[C@@H](C)CN(C)C(=O)Nc1cccc(N(C)C(C)C)c1  0.79
27. CCN(CC(C)C)C(=O)c1cc(C)on1  0.68
28. CC(C)(Oc1ccc2c(c1)CCC2)C(=O)Nc1nccs1  0.63
29. COCc1nc(CCCN2CCCC2=O)n(Cc2ccc(Cl)cc2)n1  0.6
30. Cc1n[nH]c(-c2ccc(S(=O)(=O)N3CCN(C)CC3)o2)c1C  0.52
31. COc1ccc(NC(=O)N2CC[C@H]3COC(=O)N3c3ccccc3C2)cc1  0.42
32. c1cnn(C2CN(C[C@@H]3CCCN4CCCC[C@H]34)C2)c1  0.39
33. COc1ccc(-c2nnc(-c3ccccc3)n2-c2cccnc2)cc1  0.3
34. Cc1cc(C(=O)Nc2c(C(F)(F)F)nn(C)c2Cl)c(C)n1C  0.27
35. Cc1cc(C(=O)N2CCOC[C@H](Oc3ccc(S(C)(=O)=O)cc3)C2)c(C(F)(F)F)o1  0.27
36. Cc1ncccc1NC(=O)c1ccc([C@H]2CCCOC2)cc1  0.18
37. Fc1ccc(-c2noc([C@H]3CCCN(c4nc5ccccc5o4)C3)n2)cc1  0.08
38. O=C(Nc1nnc2ccccn12)c1cccc(F)c1  0.05
39. CCC1(CO)CCN(C(=O)NCc2cnc(CC(C)C)s2)CC1  0.01
40. COc1cc(OC)cc([C@H](C(=O)O)N2CCc3ccccc3C(C)(C)C2)c1  -0.02
41. Nc1nccnc1C(=O)N[C@@H](c1ccccc1)c1ccc2c(c1)CCCO2  -0.08
42. CCc1cc2c(N3CCCO3)ncnc2s1  -0.09
43. CC(=O)N1CC2(CCN(C(=O)c3cnc(C(C)(C)C)s3)CC2)[C@H]2COC[C@H]21  -0.15
44. O=C(COc1ccc(-c2ncccn2)cc1CN1CCCCCC1)NC[C@H]1CCCO1  -0.18
45. C[C@@H]1Oc2ccccc2CN(CCc2cccs2)C1=O  -0.24
46. CC(C)(C)NC(=O)NCc1cccnc1-c1cccs1  -0.56
47. COc1cccc(CN(CC(C)C)C(=O)CN2C(=O)CCNC2=O)c1  -0.7
48. COc1ccc(N2C(=O)c3ccccc3NC23CCCCC3)cc1  -0.74
49. O=C(Nc1cccc(C(F)(F)F)c1)c1cc(O)n(-c2ccc(Cl)cc2)c(=O)n1  -0.75
50. C=CCN(Cc1ccc(F)cc1)Cc1cnc(NCC(=O)O)nc1  -1
51. Fc1ccc(-c2cn[nH]c2[C@H]2CCCNC2)cc1  -1.37
52. Cc1ccccc1CN1C(=O)NC(C2CC2)(C2CC2)C1=O  -1.38
53. CCOC(=O)[C@H]1CCCN(C(=O)N(CC)CC)C1  -1.81
54. CN1CCN(Cc2nnnn2C)c2ccc(Cl)cc21  -1.82
55. O=C1CNC(=O)N1CCN1CC2CCCCC21c1ccccc1 (configuration not stated)  -1.95
56. CC(C)c1cc(C(=O)N2CC3CCCCC3C2)on1 (configuration not stated)  -3.39

— ChEMBL document CHEMBL4888484, “Replenishing the malaria drug discovery pipeline: Screening and hit evaluation of the MMV Hit Generation Library 1 (HGL1) against asexual blood stage Plasmodium falciparum ,using a nano luciferase reporter read-out” (2022)
